Reference: patent US7423058B2, “Inhibitors of hepatitis C virus NS3 protease” (Schering Corporation, priority 2004, dated 2008)

Each molecule was assayed against Recombinant heterodimeric HCV NS3/NS4A protease (strain 1a) (Hepatitis C virus genotype 1a, UniProt P27958) (assay: Spectrophotometric assay for HCV protease inhibitory activity (chromogenic ester substrates)). Details: Table 1: Ketones; read-out: Ki* Range.
Assay type: biochemical

Row | SMILES | Ki [nM]
1 | CCNC(=O)C(=O)C(CC1CC1)NC(=O)[C@@H]1[C@@H]2[C@H](CN1C(=O)[C@@H](NC(=O)N[C@H](C(=O)C1CC1)C(C)C)C(C)(C)C)C2(C)C (some centres unmarked) [compound 4167] | < 75
2 | C=CCNC(=O)C(=O)C(CCC)NC(=O)[C@@H]1[C@@H]2[C@H](CN1C(=O)[C@@H](NC(=O)N[C@H](C(=O)C1CC1)C1CCCCC1)C1(C)CCCCC1)C2(C)C (some centres unmarked) [compound 4169] | < 75
3 | C=CCNC(=O)C(=O)C(CCC)NC(=O)[C@@H]1[C@@H]2[C@H](CN1C(=O)[C@@H](NC(=O)N[C@H](C(=O)c1ccncc1)C(C)C)C(C)(C)C)C2(C)C (some centres unmarked) [compound 4170] | < 75
4 | C=CCNC(=O)C(=O)C(CCC(F)(F)F)NC(=O)[C@@H]1[C@@H]2[C@H](CN1C(=O)[C@@H](NC(=O)N[C@H](C(=O)c1nccs1)C(C)C)C(C)(C)C)C2(C)C (some centres unmarked) [compound 4171] | < 75
5 | CNC(=O)C(=O)C(CC1CC1)NC(=O)[C@@H]1[C@@H]2[C@H](CN1C(=O)[C@@H](NC(=O)N[C@H](C(=O)c1ccccn1)C(C)C)C(C)(C)C)C2(C)C (some centres unmarked) [compound 4172] | < 75
6 | CNC(=O)C(=O)C(CC1CC1)NC(=O)[C@@H]1[C@@H]2[C@H](CN1C(=O)[C@@H](NC(=O)N[C@H](C(=O)C1CC1)C1CCCCC1)C(C)(C)C)C2(C)C (some centres unmarked) [compound 4173] | 76 to 250
7 | CC(C)[C@H](NC(=O)N[C@H](C(=O)N1CC2OC(C)(C)CC2[C@H]1C(=O)NC(CC1CC1)C(=O)C(N)=O)C1CCCCC1)C(=O)c1nccs1 (some centres unmarked) [compound 4174] | 76 to 250
8 | C=CCNC(=O)C(=O)C(CCC)NC(=O)[C@@H]1[C@@H]2[C@H](CN1C(=O)[C@@H](NC(=O)N[C@H](CC(=O)c1ccccn1)C(C)C)C(C)(C)C)C2(C)C (some centres unmarked) [compound 4175] | 76 to 250
9 | C#CCCC(NC(=O)[C@@H]1[C@@H]2[C@H](CN1C(=O)[C@@H](NC(=O)NC(C(=O)c1ccccc1)C(C)C)C(C)(C)C)C2(C)C)C(=O)C(=O)NCC#C (some centres unmarked) [compound 4176] | 76 to 250
10 | C=CCNC(=O)C(=O)C(CCC)NC(=O)[C@@H]1[C@@H]2[C@H](CN1C(=O)[C@@H](NC(=O)N[C@H](C(=O)c1ccc(C(F)(F)F)cc1)C(C)C)C(C)(C)C)C2(C)C (some centres unmarked) [compound 4177] | 76 to 250
11 | CC(C)(C)[C@H](NC(=O)NC1(C(=O)Cc2ccccc2)CCCCC1)C(=O)N1C[C@H]2[C@@H]([C@H]1C(=O)NC(CC1CC1)C(=O)C(N)=O)C2(C)C (some centres unmarked) [compound 4178] | 76 to 250
12 | CC(C)[C@H](OC(=O)N[C@H](C(=O)N1C[C@H]2[C@@H]([C@H]1C(=O)NC(CC1CC1)C(=O)C(N)=O)C2(C)C)C(C)(C)C)C(=O)c1ccccc1 (some centres unmarked) [compound 4179] | 76 to 250
13 | CC(C)(C)[C@H](NC(=O)NC1(C(=O)c2ccccc2)CCCC1)C(=O)N1C[C@H]2[C@@H]([C@H]1C(=O)NC(CC1CC1)C(=O)C(N)=O)C2(C)C (some centres unmarked) [compound 4182] | 76 to 250
14 | CC(C)(C)[C@H](NC(=O)NC1(C(=O)c2ccccc2)CCCCC1)C(=O)N1C[C@H]2[C@@H]([C@H]1C(=O)NC(CC1CC1)C(=O)C(N)=O)C2(C)C (some centres unmarked) [compound 4183] | 76 to 250
15 | CC(C)[C@@H](NC(=O)N[C@H](C(=O)N1C[C@H]2[C@@H]([C@H]1C(=O)NC(CC1CC1)C(=O)C(N)=O)C2(C)C)C(C)(C)C)C(=O)c1ccccc1 (some centres unmarked) [compound 4184] | 76 to 250
16 | CC(C)[C@H](NC(=O)N[C@H](C(=O)N1CC2OC(C)(C)CC2[C@H]1C(=O)NC(CC1CCC1)C(=O)C(N)=O)C1CCCCC1)C(=O)c1nccs1 (some centres unmarked) [compound 4185] | 76 to 250
17 | CCCNC(=O)C(=O)C(CCC)NC(=O)[C@@H]1[C@@H]2[C@H](CN1C(=O)[C@@H](NC(=O)N[C@H](C(=O)C1CC1)C(C)C)C(C)(C)C)C2(C)C (some centres unmarked) [compound 4186] | 76 to 250
18 | CCCC(NC(=O)[C@@H]1[C@@H]2[C@H](CN1C(=O)[C@@H](NC(=O)N[C@H](C(=O)C1CC1)C(C)C)C(C)(C)C)C2(C)C)C(=O)C(=O)NC (some centres unmarked) [compound 4187] | 76 to 250
19 | CCCC(NC(=O)[C@@H]1[C@@H]2[C@H](CN1C(=O)[C@@H](NC(=O)N[C@H](C(=O)C(C)C)C(C)C)C(C)(C)C)C2(C)C)C(=O)C(=O)NC (some centres unmarked) [compound 4188] | 76 to 250
20 | C=CCNC(=O)C(=O)C(CCCC)NC(=O)[C@@H]1[C@@H]2[C@H](CN1C(=O)[C@@H](NC(=O)N[C@H](C(=O)c1ccco1)C(C)C)C(C)(C)C)C2(C)C (some centres unmarked) [compound 4189] | 76 to 250

Row | SMILES | Ki [nM]
21 | CC(C)(C)[C@H](NC(=O)NC1(C(=O)c2ccccn2)CCCCC1)C(=O)N1C[C@H]2[C@@H]([C@H]1C(=O)NC(CC1CC1)C(=O)C(N)=O)C2(C)C (some centres unmarked) [compound 4190] | 76 to 250
22 | C=CCNC(=O)C(=O)C(CCC)NC(=O)[C@@H]1[C@@H]2[C@H](CN1C(=O)[C@@H](NC(=O)N[C@H](C(=O)c1nccs1)C(C)(C)C)C(C)(C)C)C2(C)C (some centres unmarked) [compound 4191] | 76 to 250
23 | CCCC(NC(=O)[C@@H]1[C@@H]2[C@H](CN1C(=O)[C@@H](NC(=O)N[C@H](C(=O)C1CC1)C(C)C)C(C)(C)C)C2(C)C)C(=O)C(=O)NCC (some centres unmarked) [compound 4192] | 76 to 250
24 | C=CCNC(=O)C(=O)C(CCC)NC(=O)[C@@H]1[C@H]2CC(C)(C)O[C@H]2CN1C(=O)[C@@H](NC(=O)N[C@H](C(=O)C1CC1)C(C)C)C(C)(C)C (some centres unmarked) [compound 4193] | 76 to 250
25 | C=C(F)CNC(=O)C(=O)C(CCC)NC(=O)[C@@H]1[C@@H]2[C@H](CN1C(=O)[C@@H](NC(=O)N[C@H](C(=O)C(C)C)C(C)C)C(C)(C)C)C2(C)C (some centres unmarked) [compound 4194] | 76 to 250
26 | CCNC(=O)C(=O)C(CC1CC1)NC(=O)[C@@H]1[C@@H]2[C@H](CN1C(=O)[C@@H](NC(=O)N[C@H](C(=O)C1CC1)C1CCCCC1)C(C)(C)C)C2(C)C (some centres unmarked) [compound 4195] | 76 to 250
27 | CCNC(=O)C(=O)C(CC1CC1)NC(=O)[C@@H]1[C@@H]2[C@H](CN1C(=O)[C@@H](NC(=O)N[C@H](C(=O)C(C)C)C(C)C)C(C)(C)C)C2(C)C (some centres unmarked) [compound 4196] | 76 to 250
28 | C=CCNC(=O)C(=O)C(CCC)NC(=O)[C@@H]1[C@H]2CC(C)(C)O[C@H]2CN1C(=O)[C@@H](NC(=O)N[C@H](C(=O)C1CC1)C(C)C)C1CCCCC1 (some centres unmarked) [compound 4197] | 76 to 250
29 | CCCC(NC(=O)[C@@H]1[C@@H]2[C@H](CN1C(=O)[C@@H](NC(=O)N[C@H](C(=O)C(C)C)C(C)C)C(C)(C)C)C2(C)C)C(=O)C(=O)NCC(F)(F)F (some centres unmarked) [compound 4198] | 76 to 250
30 | C=C(F)CNC(=O)C(=O)C(CCC)NC(=O)[C@@H]1[C@@H]2[C@H](CN1C(=O)[C@@H](NC(=O)N[C@H](C(=O)c1ccccn1)C(C)C)C(C)(C)C)C2(C)C (some centres unmarked) [compound 4199] | 76 to 250
31 | CCCC(NC(=O)[C@@H]1[C@@H]2[C@H](CN1C(=O)[C@@H](NC(=O)N[C@H](C(=O)C1CC1)C1CCCCC1)C(C)(C)C)C2(C)C)C(=O)C(=O)NCCC(F)(F)F (some centres unmarked) [compound 4200] | 76 to 250
32 | C#CCCCC(NC(=O)[C@@H]1[C@@H]2[C@H](CN1C(=O)[C@@H](NC(=O)N[C@H](C(=O)c1ccccc1)C(C)C)C(C)(C)C)C2(C)C)C(=O)C(=O)NCC=C (some centres unmarked) [compound 4201] | 76 to 250
33 | CCCC(NC(=O)[C@@H]1[C@@H]2[C@H](CN1C(=O)[C@@H](NC(=O)N[C@H](C(=O)C(C)C)C(C)C)C(C)(C)C)C2(C)C)C(=O)C(=O)NCCC(F)(F)F (some centres unmarked) [compound 4203] | > 250
34 | CCCC(NC(=O)[C@@H]1[C@@H]2[C@H](CN1C(=O)[C@@H](NC(=O)N[C@H](C(=O)C1CC1)C(C)C)C(C)(C)C)C2(C)C)C(=O)C(=O)NCCOC (some centres unmarked) [compound 4204] | > 250
35 | C=CCNC(=O)C(=O)C(CCC)NC(=O)[C@@H]1[C@@H]2[C@H](CN1C(=O)[C@@H](NC(=O)NC1(C(=O)c3ccccn3)CCCCC1)C(C)(C)C)C2(C)C (some centres unmarked) [compound 4205] | > 250
36 | CCCNC(=O)C(=O)C(CCC(F)(F)F)NC(=O)[C@@H]1[C@@H]2[C@H](CN1C(=O)[C@@H](NC(=O)N[C@H](C(=O)C1CC1)C1CCCCC1)C1CCCCC1)C2(C)C (some centres unmarked) [compound 4206] | > 250
37 | CCCC(NC(=O)[C@@H]1[C@@H]2[C@H](CN1C(=O)[C@@H](NC(=O)N[C@H](C(=O)C1CC1)C1CCCCC1)C(C)(C)C)C2(C)C)C(=O)C(=O)NCC(F)(F)F (some centres unmarked) [compound 4207] | > 250
38 | C=CCNC(=O)C(=O)C(CCC)NC(=O)[C@@H]1[C@H]2CC(C)(C)O[C@H]2CN1C(=O)[C@@H](NC(=O)N[C@H](C(=O)c1nccs1)C(C)C)C1CCCCC1 (some centres unmarked) [compound 4208] | > 250
39 | CC(C)[C@H](NC(=O)N[C@H](C(=O)N1CC2OC(C)(C)CC2[C@H]1C(=O)NC(CC1CCC1)C(=O)C(N)=O)C(C)C)C(=O)c1nccs1 (some centres unmarked) [compound 4209] | > 250

Same assay, conditions: Table 2: Oximes; read-out: Ki* Range

Row | SMILES | Ki [nM]
40 | CO/N=C(\c1ccccc1)[C@@H](NC(=O)N[C@H](C(=O)N1C[C@H]2[C@@H]([C@H]1C(=O)NC(CC1CC1)C(=O)C(N)=O)C2(C)C)C(C)(C)C)C(C)C (some centres unmarked) [compound 4289] | < 75
41 | CC(C)(C)[C@H](NC(=O)N[C@H](/C(=N/O)C1CC1)C1CCCCC1)C(=O)N1C[C@H]2[C@@H]([C@H]1C(=O)NC(CC1CC1)C(=O)C(N)=O)C2(C)C (some centres unmarked) [compound 4290] | < 75
42 | CC(C)[C@H](NC(=O)N[C@H](C(=O)N1C[C@H]2[C@@H]([C@H]1C(=O)NC(CC1CC1)C(=O)C(N)=O)C2(C)C)C(C)(C)C)/C(=N\O)C1CC1 (some centres unmarked) [compound 4291] | 76 to 250
43 | CC(C)(C)[C@H](NC(=O)N[C@H](/C(=N/O)C1CC1)C1CCCCC1)C(=O)N1C[C@H]2[C@@H]([C@H]1C(=O)NC(CC1CC1)C(=O)C(N)=O)C2(C)C (some centres unmarked) [compound 4292] | 76 to 250
44 | CO/N=C(\C1CC1)[C@@H](NC(=O)N[C@H](C(=O)N1C[C@H]2[C@@H]([C@H]1C(=O)NC(CC1CC1)C(=O)C(N)=O)C2(C)C)C(C)(C)C)C(C)C (some centres unmarked) [compound 4293] | 76 to 250
45 | CO/N=C(/c1ccccc1)[C@@H](NC(=O)N[C@H](C(=O)N1C[C@H]2[C@@H]([C@H]1C(=O)NC(CC1CC1)C(=O)C(N)=O)C2(C)C)C(C)(C)C)C(C)C (some centres unmarked) [compound 4294] | 76 to 250
46 | C=CCNC(=O)C(=O)C(CCC)NC(=O)[C@@H]1[C@@H]2[C@H](CN1C(=O)[C@@H](NC(=O)N[C@H](/C(=N/OC)c1ccccc1)C(C)C)C(C)(C)C)C2(C)C (some centres unmarked) [compound 4296] | 76 to 250
47 | CO/N=C(/C1CC1)[C@@H](NC(=O)N[C@H](C(=O)N1C[C@H]2[C@@H]([C@H]1C(=O)NC(CC1CC1)C(=O)C(N)=O)C2(C)C)C(C)(C)C)C1CCCCC1 (some centres unmarked) [compound 4297] | 76 to 250
